The supplement of paper PMC8728848
The list shows a part of the results.

Columns and labels:
Experiment in all cases: glycan array binding signal (z-score within array); higher = stronger binding
Conditions in all cases: glycan notation: IUPAC condensed, linker removed
[1] = molecular target: Neu5Ac(a2-6)Gal(b1-4)GlcNAc(b1-3)Gal(b1-4)[Fuc(a1-3)]GlcNAc(b1-3)Gal(b1-4)[Fuc(a1-3)]GlcNAc
Summary of the method: (§1)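 Glycan array binding is given as a within-array Z-score, which can be read as non-binding when negative. The arrays, 3228 of them, came from the Consortium for Functional Glycomics database and were retained only where the protein sequence was available. Z-scores were averaged across arrays of the same protein sequence at different concentrations or buffers and across linkers.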

[2] = molecular target: Neu5Ac(a2-6)Gal(b1-4)GlcNAc(b1-3)GalNAc
Summary of the method: as §1

[3] = molecular target: Neu5Ac(a2-6)Gal(b1-4)GlcNAc(b1-3)[Neu5Ac(a2-6)Gal(b1-4)GlcNAc(b1-6)]GalNAc
Summary of the method: as §1

[4] = molecular target: Neu5Ac(a2-6)Gal(b1-4)GlcNAc(b1-6)GalNAc
Summary of the method: as §1

[5] = molecular target: Neu5Ac(a2-6)Gal(b1-4)GlcNAc(b1-6)[Gal(b1-3)GlcNAc(b1-3)]Gal(b1-4)Glc
Summary of the method: as §1

[6] = molecular target: Neu5Ac(a2-6)Gal(b1-4)GlcNAc(b1-6)[Gal(b1-3)]GalNAc
Summary of the method: as §1

[7] = molecular target: Neu5Ac(a2-6)Gal(b1-4)GlcNAc6S
Summary of the method: as §1

Neu5Ac(a2-6)GalNAc = molecular target: Neu5Ac(a2-6)GalNAc
Summary of the method: as §1

[8] = molecular target: Neu5Ac(a2-6)GalNAc(b1-4)GlcNAc
Summary of the method: as §1

[9] = molecular target: Neu5Ac(a2-6)GalNAc(b1-4)GlcNAc6S
Summary of the method: as §1

[10] = molecular target: Neu5Ac(a2-6)GlcNAc(b1-4)GlcNAc
Summary of the method: as §1

[11] = molecular target: Neu5Ac(a2-6)GlcNAc(b1-4)GlcNAc(b1-4)GlcNAc
Summary of the method: as §1

Neu5Ac(a2-8)Neu5Ac = molecular target: Neu5Ac(a2-8)Neu5Ac
Summary of the method: as §1

[12] = molecular target: Neu5Ac(a2-8)Neu5Ac(a2-3)Gal(b1-3)GalNAc(b1-4)[Neu5Ac(a2-3)]Gal(b1-4)Glc
Summary of the method: as §1

[13] = molecular target: Neu5Ac(a2-8)Neu5Ac(a2-3)Gal(b1-3)GalNAc(b1-4)[Neu5Ac(a2-8)Neu5Ac(a2-3)]Gal(b1-4)Glc
Summary of the method: as §1

[14] = molecular target: Neu5Ac(a2-8)Neu5Ac(a2-3)Gal(b1-4)Glc
Summary of the method: as §1

[15] = molecular target: Neu5Ac(a2-8)Neu5Ac(a2-3)Gal(b1-4)GlcNAc
Summary of the method: as §1

[16] = molecular target: Neu5Ac(a2-8)Neu5Ac(a2-3)[Gal(b1-3)GalNAc(b1-4)]Gal(b1-4)Glc
Summary of the method: as §1

[17] = molecular target: Neu5Ac(a2-8)Neu5Ac(a2-3)[GalNAc(b1-4)]Gal(b1-4)Glc
Summary of the method: as §1

[18] = molecular target: Neu5Ac(a2-8)Neu5Ac(a2-8)Neu5Ac
Summary of the method: as §1

[19] = molecular target: Neu5Ac(a2-8)Neu5Ac(a2-8)Neu5Ac(a2-3)Gal(b1-4)Glc
Summary of the method: as §1

[20] = molecular target: Neu5Ac(a2-8)Neu5Ac(a2-8)Neu5Ac(a2-3)[Gal(b1-3)GalNAc(b1-4)]Gal(b1-4)Glc
Summary of the method: as §1

[21] = molecular target: Neu5Ac(a2-8)Neu5Ac(a2-8)Neu5Ac(a2-3)[GalNAc(b1-4)]Gal(b1-4)Glc
Summary of the method: as §1

[22] = molecular target: Neu5Ac(a2-8)Neu5Ac(a2-8)Neu5Ac(a2-8)Neu5Ac(a2-3)[GalNAc(b1-4)]Gal(b1-4)Glc
Summary of the method: as §1

[23] = molecular target: Neu5Ac(a2-8)Neu5Gc(a2-3)Gal(b1-4)GlcNAc
Summary of the method: as §1

[24] = molecular target: Neu5Ac(b2-6)Gal(b1-4)GlcNAc
Summary of the method: as §1

Neu5Ac(b2-6)GalNAc = molecular target: Neu5Ac(b2-6)GalNAc
Summary of the method: as §1

[25] = molecular target: Neu5Ac9Ac(a2-3)Gal(b1-3)GlcNAc
Summary of the method: as §1

[26] = molecular target: Neu5Ac9Ac(a2-3)Gal(b1-4)GlcNAc
Summary of the method: as §1

[27] = molecular target: Neu5Ac9Ac(a2-6)Gal(b1-4)GlcNAc
Summary of the method: as §1

[28] = molecular target: Neu5Gc(a2-3)Gal(b1-3)GlcNAc
Summary of the method: as §1

[29] = molecular target: Neu5Gc(a2-3)Gal(b1-3)[Fuc(a1-4)]GlcNAc
Summary of the method: as §1

Neu5Gc(a2-3)Gal(b1-4)Glc = molecular target: Neu5Gc(a2-3)Gal(b1-4)Glc
Summary of the method: as §1

[30] = molecular target: Neu5Gc(a2-3)Gal(b1-4)GlcNAc
Summary of the method: as §1

[31] = molecular target: Neu5Gc(a2-3)Gal(b1-4)GlcNAc(b1-3)Gal(b1-4)GlcNAc(b1-2)Man(a1-3)[Neu5Gc(a2-3)Gal(b1-4)GlcNAc(b1-3)Gal(b1-4)GlcNAc(b1-2)Man(a1-6)]Man(b1-4)GlcNAc(b1-4)GlcNAc
Summary of the method: as §1

[32] = molecular target: Neu5Gc(a2-3)Gal(b1-4)[Fuc(a1-3)]GlcNAc
Summary of the method: as §1

[33] = molecular target: Neu5Gc(a2-6)Gal(b1-4)GlcNAc
Summary of the method: as §1

Neu5Gc(a2-6)GalNAc = molecular target: Neu5Gc(a2-6)GalNAc
Summary of the method: as §1

[34] = molecular target: Neu5Gc(a2-8)Neu5Ac(a2-3)Gal(b1-4)GlcNAc
Summary of the method: as §1

[35] = molecular target: Neu5Gc(a2-8)Neu5Gc(a2-3)Gal(b1-4)GlcNAc
Summary of the method: as §1

[36] = molecular target: Neu5Gc(a2-8)Neu5Gc(a2-3)Gal(b1-4)GlcNAc(b1-3)Gal(b1-4)GlcNAc
Summary of the method: as §1

[37] = molecular target: Neu5Gc(a2-8)Neu5Gc(a2-6)Gal(b1-4)GlcNAc
Summary of the method: as §1

[38] = molecular target: Neu5Gc(b2-6)Gal(b1-4)GlcNAc
Summary of the method: as §1

B1: rAAL-2 (Agrocybe aegerita) (protein)
chain: MTSNVITQDLPIPVASRGFADIVGFGLDGVVIGRNAVNLQPFLAVKNFAQNAGGWLTTKHVRLIADTTGTGKGDIVGFGNAGVYVSVNNGKNTFADPPKMVIANFGYDAGGWRVEKHLRYLADIRKIGRADIIGFGEKGVLVSRNNGGLNFGPATLVLKDFGYDAGGWRLDRHLRFLADVTGNGHLDIVGFGDKHVFISRNNGDGTFAPAKSVIDNFCIDAGGWKIGDHPRFVADLTGDGTADIIGCGKAGCWVALNNGGGVFGQVKLVINDFGTDKGWQAAKHPRFIADLTGNGRGDVVGFGNAGVYVALNNGDGTFQSAKLVLKDFGVQQGWTVSKHRRFVVDLTGDGCADIIGFGEKETLVSYNDGKGNFGPVKALTNDFSFSGGKWAPETTVCWMANLDSSRH
B1 was tested, and the “glycan array binding signal (z-score)” value [1] was -0.173, the “glycan array binding signal (z-score)” value [2] was -0.11 and the “glycan array binding signal (z-score)” value [3] was -0.268. For the same binder, the “glycan array binding signal (z-score)” value [4] was -0.075, the “glycan array binding signal (z-score)” value [5] was -0.585 and the “glycan array binding signal (z-score)” value [6] was -0.383. The “glycan array binding signal (z-score)” value [7] was -0.377, the “glycan array binding signal (z-score)” value (Neu5Ac(a2-6)GalNAc) was -0.364 and the “glycan array binding signal (z-score)” value [8] was -0.288. The “glycan array binding signal (z-score)” value [9] was -0.276, the “glycan array binding signal (z-score)” value [10] was 0.557 and the “glycan array binding signal (z-score)” value [11] was 0.582. For the same binder, the “glycan array binding signal (z-score)” value (Neu5Ac(a2-8)Neu5Ac) was -0.295, the “glycan array binding signal (z-score)” value [12] was -0.087 and the “glycan array binding signal (z-score)” value [13] was -0.072. For the same binder, the “glycan array binding signal (z-score)” value [14] was -0.188, the “glycan array binding signal (z-score)” value [15] was -0.544 and the “glycan array binding signal (z-score)” value [16] was -0.139. For the same binder, the “glycan array binding signal (z-score)” value [17] was -0.331, the “glycan array binding signal (z-score)” value [18] was -0.104 and the “glycan array binding signal (z-score)” value [19] was -0.296. For the same binder, the “glycan array binding signal (z-score)” value [20] was -0.542, the “glycan array binding signal (z-score)” value [21] was -0.33 and the “glycan array binding signal (z-score)” value [22] was -0.141. The “glycan array binding signal (z-score)” value [23] was -0.124, the “glycan array binding signal (z-score)” value [24] was -0.239 and the “glycan array binding signal (z-score)” value (Neu5Ac(b2-6)GalNAc) was -0.401. For the same binder, the “glycan array binding signal (z-score)” value [25] was -0.184, the “glycan array binding signal (z-score)” value [26] was -0.139 and the “glycan array binding signal (z-score)” value [27] was -0.211. For the same binder, the “glycan array binding signal (z-score)” value [28] was -0.313, the “glycan array binding signal (z-score)” value [29] was -0.347 and the “glycan array binding signal (z-score)” value (Neu5Gc(a2-3)Gal(b1-4)Glc) was -0.245. For the same binder, the “glycan array binding signal (z-score)” value [30] was -0.263, the “glycan array binding signal (z-score)” value [31] was -0.064 and the “glycan array binding signal (z-score)” value [32] was -0.291. The “glycan array binding signal (z-score)” value [33] was -0.326, the “glycan array binding signal (z-score)” value (Neu5Gc(a2-6)GalNAc) was -0.28 and the “glycan array binding signal (z-score)” value [34] was -0.247. For the same binder, the “glycan array binding signal (z-score)” value [35] was -0.28, the “glycan array binding signal (z-score)” value [36] was -0.178 and the “glycan array binding signal (z-score)” value [37] was -0.608. The “glycan array binding signal (z-score)” value [38] was -0.084.
